Assay results from PubChem BioAssay AID588795 (National Center for Advancing Translational Sciences (NCATS), 2011).
Out of some 390,000 compounds screened, about 1,400 (0.36%) were called active. The inconclusive results got no clear call from the source; some entries with a clear call stand among them for comparison. Calls follow the shape of the dose curve; as a rule, active = well fitted inhibition curve with a large enough effect; inconclusive = small, poorly fitted or top-dose-only effect; inactive = no such curve, though single readings can be large or run the other way. A potency beside an inconclusive call is a rough fit, not a confirmed value.

molecular target: Flap endonuclease 1 (Homo sapiens) (UniProt P39748); assay: qHTS Assay for the Inhibitors of Human Flap endonuclease 1 (FEN1).; also: nearly all actives have a fitted effect of over 65% in size; conditions: Recombinant FEN1 flap cleavage, fluorescence, 15 min; series mostly up to 114 µM; activity change, negative = inhibition: at the top concentration
UniProt P39748, sequence (P39748 whole entry, looked up): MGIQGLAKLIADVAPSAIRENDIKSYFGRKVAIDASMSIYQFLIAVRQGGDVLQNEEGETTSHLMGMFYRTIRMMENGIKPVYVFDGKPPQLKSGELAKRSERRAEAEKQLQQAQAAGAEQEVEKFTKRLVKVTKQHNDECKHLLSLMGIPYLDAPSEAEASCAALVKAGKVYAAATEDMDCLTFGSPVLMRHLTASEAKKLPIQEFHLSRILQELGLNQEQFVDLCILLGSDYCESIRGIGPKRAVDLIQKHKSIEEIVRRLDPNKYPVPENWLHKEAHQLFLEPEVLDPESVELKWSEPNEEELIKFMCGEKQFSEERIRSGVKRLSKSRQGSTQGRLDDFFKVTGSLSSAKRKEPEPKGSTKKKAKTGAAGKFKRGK
Procedure, shortened: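 Steps: FEN1 (10 nM) dispensed; compound added by pin tool; 15 min at room temperature; substrate added to 50 nM final; reads at 0 min and 15 min; data normalized and fitted (four-parameter Hill).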
% is scaled to controls: 0 for no effect and ±100 for the full control effect; potency is read from the fitted curve at half-maximal effect; tags tell the direction and shape of the fitted curve.

| Structure (SMILES) | Potency | activity change, negative = inhibition |
| --- | --- | --- |
| Cc1ccc(C2(C)NC(=O)N(CC(=O)Nc3ccc4[nH]c(=O)[nH]c4c3)C2=O)cc1 (centres undefined) | inconclusive: 12.6 µM [inhibitor, partial curve, poor fit] | – |
| CCOc1cc(C(c2c(C)[nH]n(-c3ccccc3)c2=O)c2c(C)[nH]n(-c3ccccc3)c2=O)ccc1O | inconclusive: 14.1 µM [inhibitor, partial curve, poor fit] | – |
| COc1ccc(CCNC(=O)c2cnn(-c3ccc(F)cc3)c2C2CCN(C(=O)OC(C)(C)C)CC2)cc1OC | – | inactive: -11.6% |
| CN(C)CCCn1c(SCC(=O)Nc2nc(-c3cccc(Br)c3)cs2)nc2ccccc2c1=O | inconclusive: 89.1 µM [inhibitor, single point] | – |
| CN(C)c1ccc(/C=C/c2c[n+](C)cc3ccccc23)cc1 | inconclusive: 50.1 µM [inhibitor, partial curve] | – |
| CCOC(=O)c1c(C)[nH]c2c1-c1ccccc1C(=O)C2=O | inconclusive: 11.2 µM [inhibitor, partial curve, poor fit] | – |
| NS(=O)(=O)c1ccc(N=Nc2c(=O)[nH]n3c(=O)c4c([nH]c23)CCCC4)cc1 | inconclusive: 50.1 µM [inhibitor, partial curve, poor fit] | – |
| OC(CNCC1CCCO1)Cn1c2ccc(Br)cc2c2cc(Br)ccc21 (centres undefined) | inconclusive: 89.1 µM [inhibitor, single point] | – |
| COc1ccc(CNC(=O)Cn2c(=O)c3cccn3c3cccnc32)cc1 | – | inactive: 5.76% |
| CCn1cc([N+](=O)[O-])c(C(=O)N2N=C(c3ccc(Cl)c(Cl)c3)CC2c2ccccc2O)n1 (centres undefined) | inconclusive: 89.1 µM [inhibitor, partial curve, poor fit] | – |
| Cc1ccc(-n2c(O)c(C=Nc3ccccc3-c3n[nH]c(=S)[nH]c3=O)c3ccccc3c2=O)cc1C | active: 50.1 µM | – |
| O=C(NC1CCCC1)c1ccc(CSCc2ccccc2F)o1 | inconclusive: 89.1 µM [inhibitor, partial curve, poor fit] | – |
| Cc1cccc(NS(=O)(=O)c2ccc(-c3cnc(C4CC4)o3)cc2)c1C | inconclusive: 8.91 µM [inhibitor, partial curve, poor fit] | – |
| CCOC(CNc1ncnc2sc(-c3ccccc3)cc12)OCC | inconclusive: 11.2 µM [inhibitor, partial curve, poor fit] | – |
| COc1ccccc1Nc1nc(NCC2CCCO2)c2ccccc2n1 (centres undefined) | inconclusive: 89.1 µM [inhibitor, single point] | – |
| c1csc(-c2cn3ccc4ccccc4c3n2)c1 | inconclusive: 31.6 µM [inhibitor, full curve] | – |
| CCn1c(=O)c(C(=O)Nc2ncccc2O)c(O)c2ccccc21 | inconclusive: 79.4 µM [inhibitor, partial curve, poor fit] | – |
| CCOC(=O)c1ccc(NC(=O)c2c(NCc3sccc3C)sc3c2CCC(C)C3)cc1 (centres undefined) | – | inactive: -2.25% |
| O=C(Nc1ncccc1O)c1c(O)c2ccccc2[nH]c1=O | inconclusive: 39.8 µM [inhibitor, single point] | – |
| COc1ccc(-c2ccc(C3C(C#N)=C(N)Oc4n[nH]c(C)c43)o2)cc1 (centres undefined) | inconclusive: 79.4 µM [inhibitor, single point] | – |
| O=C(Nc1cccc(-c2csc(Nc3ccc(Cl)cc3)n2)c1)c1cccc(C(F)(F)F)c1 | inconclusive: 79.4 µM [inhibitor, partial curve, poor fit] | – |
| Nc1ccc(O)cc1 | inconclusive: 10 µM [inhibitor, partial curve] | – |

| Structure (SMILES) | Potency | activity change, negative = inhibition |
| --- | --- | --- |
| Cc1cc(C)cc(NC(=O)CSCc2nc3c(nnn3Cc3ccc(F)cc3)c(=O)[nH]2)c1 | inconclusive: 79.4 µM [inhibitor, partial curve, poor fit] | – |
| CC(C)COc1ccc(/C(=N/O)c2ccccc2)cc1 | inconclusive: 70.8 µM [inhibitor, partial curve, poor fit] | – |
| COc1cccc(N2CC(NC(=O)c3cc4ccccc4o3)CC2=O)c1 (centres undefined) | – | inactive: 3.75% |
| CCCOc1ccc(N2C(=O)CC(NCc3ccc(S(N)(=O)=O)cc3)C2=O)cc1 (centres undefined) | – | inactive: 9.6% |
| COc1ccc(-c2coc3c2c(C)cc2oc(=O)c(CC(=O)O)c(C)c23)cc1 | inconclusive: 39.8 µM [inhibitor, partial curve] | – |
| COc1ccc(NC(=O)CN2CCCC(C)C2)c([N+](=O)[O-])c1 (centres undefined) | inconclusive: 56.2 µM [inhibitor, partial curve, poor fit] | – |
| COc1cccc(/C=N/Nc2ncnc3scc(-c4ccccc4)c23)c1O | inconclusive: 50.1 µM [inhibitor, partial curve, poor fit] | – |
| CCCCOc1ccc(-c2c(C#N)c(N)[nH]c(=S)c2C#N)cc1 | – | inactive: -3.17% |
| CCOc1ccc(NC(=O)C(=O)NCC(c2cccnc2)N2CCc3ccccc32)cc1 (centres undefined) | – | inactive: 24.5% |
| O=C(Nc1ccc(Sc2ccc(Br)cc2)cc1)c1ccco1 | inconclusive: 56.2 µM [inhibitor, partial curve] | – |
| O=C1NC(=S)NC1=Cc1ccco1 | active: 44.7 µM | – |
| O=C(O)[C@@H](c1ccccc1)N1Cc2ccccc2C1=O | inconclusive: 11.2 µM [inhibitor, full curve, poor fit] | – |
| O=C(Nc1nc2c(Br)cccc2s1)C1CC1 | inconclusive: 20 µM [inhibitor, partial curve, poor fit] | – |
| COCCN1Cc2cc3cc(C)ccc3nc2SC1=Nc1cccc(OC)c1 | inconclusive: 50.1 µM [inhibitor, partial curve, poor fit] | – |
| Cc1ccc(S(=O)(=O)/N=C2\C=C(Nc3cccc(C(=O)O)c3)C(=O)c3ccccc32)cc1 | inconclusive: 39.8 µM [inhibitor, single point] | – |
| Cc1ccc(-c2nn(-c3ccccc3)cc2CN(Cc2ccccc2)C(=O)c2ccco2)o1 | inconclusive: 89.1 µM [inhibitor, partial curve, poor fit] | – |
| COc1c2c(c3c(c1OC)c(=O)c1ccccc1n3C)OCO2 | inconclusive: 44.7 µM [inhibitor, partial curve, poor fit] | – |
| Cc1ccc(/C=C2/SC(=O)NC2=S)o1 | active: 39.8 µM | – |
| Cc1ccc(OCCOCCn2c(-c3ccc(Cl)cc3)nc3ccccc3c2=O)cc1 | – | inactive: -0.469% |
| CCOC(=O)COc1ccc2nsnc2c1Cl | – | inactive: 4.52% |
| COc1ccccc1N1CCN(C(c2cc3ccc(C)cc3[nH]c2=O)c2nnnn2C2CCCC2)CC1 (centres undefined) | inconclusive: 89.1 µM [inhibitor, partial curve, poor fit] | – |
| NC(=O)c1ccsc1NC(=O)COC(=O)c1nc(Cl)ccc1Cl | – | inactive: 6.57% |

| Structure (SMILES) | Potency | activity change, negative = inhibition |
| --- | --- | --- |
| O=C1c2cc(Br)ccc2N(Cc2ccc(Br)cc2)S(=O)(=O)C1c1cc(Cl)c(Cl)cc1[N+](=O)[O-] (centres undefined) | inconclusive: 35.5 µM [inhibitor, partial curve] | – |
| CCN1C(=O)/C(=C\c2ccc(-c3ccc([N+](=O)[O-])cc3OC)o2)SC1=Nc1cccc(C(=O)O)c1 | inconclusive: 25.1 µM [inhibitor, full curve, poor fit] | – |
| Cc1cccc(Nc2ccccc2C(=O)OCC(=O)N2CCOCC2)c1C | inconclusive: 70.8 µM [inhibitor, partial curve, poor fit] | – |
| COc1cc(Br)cc(CN2CCN(C/C=C/c3ccccc3)CC2)c1O | inconclusive: 70.8 µM [inhibitor, partial curve] | – |
| COc1ccc(C2=CC3=C(Br)C(=O)C(C)(OC(=O)c4cccs4)C(=O)C3=CO2)cc1 (centres undefined) | inconclusive: 70.8 µM [inhibitor, single point] | – |
| COC(=O)c1c(-c2cccs2)csc1NC(=O)c1cc(OC)cc(OC)c1 | – | inactive: -5.79% |
| c1ccn2c(c1)nc1c2nc2ccccn21 | inconclusive: 89.1 µM [inhibitor, partial curve, poor fit] | – |
| COc1ccc(N=Cc2cc(Cc3ccccc3Cl)cc([N+](=O)[O-])c2O)cc1OC | – | inactive: -26.3% |
| Cc1ccc2[nH]cc(CCCN3C(=O)c4ccccc4C3=O)c2c1 | inconclusive: 89.1 µM [inhibitor, partial curve, poor fit] | – |
| CCOC(=O)C1=C(c2ccc(OC)cc2)C(=O)c2ccccc2C1=O | inconclusive: 79.4 µM [inhibitor, partial curve] | – |
| CN(C)CCCn1cnc2c(c1=N)C(c1ccccc1)c1ccc3ccccc3c1O2 (centres undefined) | inconclusive: 20 µM [inhibitor, full curve] | – |
| CCn1c2ccccc2c2cc(/C=N/n3cn[nH]c3=S)ccc21 | inconclusive: 100 µM [inhibitor, partial curve, poor fit] | – |
| Cc1c(C2(c3cc(C(C)C)c(O)c(Br)c3C)OS(=O)(=O)c3ccccc32)cc(C(C)C)c(O)c1Br | inconclusive: 50.1 µM [inhibitor, partial curve] | – |
| COc1cc(/C=N/Nc2ccccc2[N+](=O)[O-])cc(OC)c1O | – | inactive: 2.1% |
| CCOC(=O)c1c(-c2ccccc2)csc1NC(=O)c1cc(-c2cccc(OC)c2)on1 | inconclusive: 89.1 µM [inhibitor, partial curve, poor fit] | – |
| COc1cc(-c2noc(C)c2-c2ccc(N(C)C)nc2)cc(OC)c1OC | inconclusive: 50.1 µM [inhibitor, partial curve, poor fit] | – |
| CCCCON1C(=O)c2cccc3cccc(c23)C1=O | – | inactive: 2.34% |
| Cc1cccc(NC(=O)c2cnn(-c3ccccc3)c2-n2cccc2)c1C | – | inactive: -23.9% |
| COc1ccc(C(=O)Nc2cccnc2Cl)cc1OC | – | inactive: -5.3% |
| O=C(CSc1nc2nn(-c3ccccc3)c(=O)c-2c2n1CCCCC2)c1ccc(O)c(O)c1 | inconclusive: 12.6 µM [inhibitor, partial curve] | – |
